# T1: FimD usher (Escherichia coli (uropathogenic), UniProt P30130 46-878)
# T1 construct: also called apo FimD; the usher; source: in 0.05% DDM
# T1 sequence: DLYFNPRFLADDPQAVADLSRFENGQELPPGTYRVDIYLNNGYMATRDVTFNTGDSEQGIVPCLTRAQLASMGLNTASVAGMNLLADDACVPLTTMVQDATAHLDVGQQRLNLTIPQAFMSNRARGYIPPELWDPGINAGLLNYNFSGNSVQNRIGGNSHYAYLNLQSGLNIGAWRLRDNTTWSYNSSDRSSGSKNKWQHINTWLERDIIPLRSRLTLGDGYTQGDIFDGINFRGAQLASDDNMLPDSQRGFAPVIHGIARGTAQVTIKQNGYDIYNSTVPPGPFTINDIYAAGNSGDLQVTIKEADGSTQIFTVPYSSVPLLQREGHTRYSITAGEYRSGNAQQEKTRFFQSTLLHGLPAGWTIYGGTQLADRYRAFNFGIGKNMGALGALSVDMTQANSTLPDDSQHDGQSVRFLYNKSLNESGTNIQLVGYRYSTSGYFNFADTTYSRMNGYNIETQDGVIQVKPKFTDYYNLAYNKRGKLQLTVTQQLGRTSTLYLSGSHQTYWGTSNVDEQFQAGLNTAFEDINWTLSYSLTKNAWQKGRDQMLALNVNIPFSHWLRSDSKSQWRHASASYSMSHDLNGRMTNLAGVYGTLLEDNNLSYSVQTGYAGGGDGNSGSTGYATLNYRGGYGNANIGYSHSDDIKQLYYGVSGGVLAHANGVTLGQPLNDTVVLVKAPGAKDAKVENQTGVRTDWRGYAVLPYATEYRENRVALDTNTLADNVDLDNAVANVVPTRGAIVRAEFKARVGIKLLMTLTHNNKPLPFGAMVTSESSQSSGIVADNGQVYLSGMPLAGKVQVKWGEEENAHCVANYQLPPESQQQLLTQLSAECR
# Target: T1, FimD usher
# Experiment: AUC; sedimentation velocity of purified FimD:FimC:FimH at the higher concentrations (> 1 μM, up to 4.3 μM); 20 °C, 42,000 rpm, absorbance optics; 50 mM Tris pH 8.0, 150 mM NaCl, 1 mM EDTA, 0.05% DDM; c(s) by SedFit; Kd of usher dimerisation (dimer to monomers) estimated by integrating the monomer and dimer peaks at 4.3 μM
# Settings: both partners purified
binder,measurement,value
"FimC:FimH chaperone:adhesin complex (complex, also called chaperone:subunit complex) chain 1: GVALGATRVIYPAGQKQEQLAVTNNDENSTYLIQSWVENADGVKDGRFIVTPPLFAMKGKKENTLRILDATNNQLPQDRESLFWMNVKAIPSMDKSKLTENTLQLAIISRIKLYYRPAKLALPPDQAAEKLRFRRSANSLTLINPTPYYLTVTELNAGTRVLENALVPPMGESTVKLPSDAGSNITYRTINDYGALTPKMTGVME chain 2: [no letters for about 300 residues]",binding result,binds

# From PMC3650583, “Dissection of Pilus Tip Assembly by the FimD Usher Monomer” (Journal of Molecular Biology, 2013)
